Reference: article PMC12040169 (PLOS Biology, 2025)
The other results are listed elsewhere or left out.

Tested on: T1, C. trachomatis L2/434/Bu expressing GFP (CTL2-GFP)
T1 construct: L2/434/Bu GFP intracellular growth in HeLa cells
Parameters: species or system HeLa; C. trachomatis total inclusion area by high-content imaging, normalised to DMSO
Settings: total inclusion area; 28.5 h, 10 µM; inhibitor
Method in brief: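 Following bulk GFP and resorufin fluorescence reads, infected cells were fixed, Hoechst-stained and imaged on a high-content platform. Inclusion total area and number per well served as growth proxies; nuclei counts indicated host viability. MICs were derived as for the fluorescence assay.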

Structure (SMILES) | % of control remaining
O=C(Cn1cccc2cc(C3CCNCC3)nc1-2)N1CCCC1 [CBK284680] | 72.3999
NC(=O)CN1CCCC2(CCN(C(=O)Cc3c[nH]c4ccccc34)C2)C1 (stereo not shown) [CBK132046] | 97.6922
COc1ccc(C(=O)Nc2c(C)noc2C)c(OC)n1 [CBK200300] | 91.4988
O=C(CCc1cccnc1)Nc1cnc(-c2cccc(OC(F)(F)F)c2)c(-c2cccnc2)n1 [CBK036811] | 75.5006
O=C(c1cccs1)N1CCCN(c2nccc(C(F)(F)F)n2)CC1 [CBK019390] | 74.8654
CSCCCNC(=O)c1ccc(-c2ccc(OC(F)(F)F)cc2)nc1 [CBK156216] | 84.3778
Fc1cccc(-c2nccnc2NCc2cccnc2)c1 [CBK037633] | 87.2697
COc1cc(OC)c(NC(=O)N2CCC(n3c(=O)[nH]c4ccccc43)CC2)cc1Cl [CBK149851] | 88.1296
CS(=O)(=O)N(CC(=O)Nc1ccc2ccccc2c1)c1ccc(Cl)cc1Cl [CBK267501] | 95.5967
CCCCCc1nnc(NC(=O)c2cccs2)s1 [CBK058382] | 75.6062
Cc1nn(C)c2ncc(S(=O)(=O)NC(C)c3cccc(F)c3)cc12 (stereo not shown) [CBK305948] | 77.2531
CCN(C)c1c(C)nc2c(OCC(=O)N(C)C)cccn12 [CBK147316] | 100.096
COc1cc(-c2cncc(N(C)CCN(C)C)n2)cc(OC)c1OC [CBK065312] | 119.326
CC(C)(C)NC(=O)COc1ccc(CNCc2ccccn2)cc1 [CBK268420C] | 110.214
CN(Cc1cc(C(C)(C)C)c(O)c(C(C)(C)C)c1)Cc1cc(C(C)(C)C)c(O)c(C(C)(C)C)c1 [CBK261980] | 96.2927
O=[N+]([O-])c1cccc(-c2cc(N3CCC(N4CCCCC4)CC3)ncn2)c1 [CBK037710] | 96.0524
Cc1ccc(-c2cc3cccnc3n2CCC(=O)NC2CC2)cn1 [CBK284964] | 89.4642
O=C(Nc1cccc(-c2noc(-c3ccccn3)n2)c1)c1cccs1 [CBK270283] | 101.687
CC(C)(C)c1cc(C(=O)Nc2ccccn2)n(Cc2ccc(Cl)cc2Cl)n1 [CBK107361] | 84.4537
CC(=O)CSc1nnc(-c2ccc(F)cc2)o1 [CBK068327] | 95.3353
Cc1cc(OC(C)C(=O)Nc2nnc[nH]2)ccc1Cl (stereo not shown) [CBK269731] | 88.5626
CCCn1ccnc1CN1CCC2(CC1)CC(C(=O)O)N(C(C)=O)C2 (stereo not shown) [CBK306691] | 91.1587
COc1cc(/C=N/n2c(S)nnc2C(F)(F)F)cc(Br)c1O [CBK265321] | 90.8065
Cc1nc(-c2cccnc2)[nH]c(=O)c1CCC(=O)N1CCNC(C)C1 (stereo not shown) [CBK304163] | 115.712
CN(Cc1ccccc1)C(=O)c1ccccc1NC(=O)c1ccccc1 [CBK267818] | 72.5058
O=C(NC1CC2(CCOCC2)Oc2ccccc21)c1cccs1 (stereo not shown) [CBK285377] | 102.893
O=C(Nc1cccc2cccnc12)c1sc2ccccc2c1Cl [CBK262132] | 113.991

Structure (SMILES) | % of control remaining
CC(C)(C)c1ccc(NC(=O)N(Cc2ccccc2C(F)(F)F)CC2CCNCC2)cc1 [CBK049752] | 100.71
Cc1n[nH]c(C)c1CC(=O)NC(Cc1cccs1)c1nccs1 (stereo not shown) [CBK285093] | 110.669
COc1ccc(NC(=O)CSc2ncnc3sc(C)cc23)c(OC)c1 [CBK277541] | 124.912
FC(F)(F)c1ccnc(OC2CCNC2)n1 (stereo not shown) [CBK113296] | 89.669
Cc1cc(C)n2ncc(C(=O)N3CCCC3c3ccsc3)c2n1 (stereo not shown) [CBK305616] | 77.1396
Cc1cccc(NCC(=O)N/N=C/c2cc3ccccc3nc2Cl)c1 [CBK261236] | 104.61
CC(=O)Nc1ccc(-c2nc3ccc(-c4ccc5nc(-c6ccc(NC(C)=O)cc6)oc(=O)c5c4)cc3c(=O)o2)cc1 [CBK261391] | 90.1152
Clc1ccc(Cl)c(N/N=C(\c2ccccc2)c2cccnc2)c1 [CBK015932C] | 72.0169
CC(C)NC(=O)Cn1c(-c2cccs2)cc2cccnc21 [CBK282454] | 109.007
CCOC(=O)CN1CCN(C(=O)Nc2ccccc2Br)CC1 [CBK044156] | 106.533
Cc1cccc(-n2c(SCC(=O)Nc3ccc(Br)cc3F)nnc2-c2ccccc2)c1 [CBK265903] | 108.748
COc1ccc(C(NC(=O)C2CCC(N)CC2)c2ccccc2C)cn1 (stereo not shown) [CBK078551] | 61.1206
Cc1ccc(C(=O)N2CCC(C(=O)NC(c3ccccc3)c3ccc4ccccc4n3)CC2)cc1 (stereo not shown) [CBK059663] | 98.8865
C(=C\c1nccnc1OCCOc1ccccc1)/c1ccccc1 [CBK106885] | 95.5944
FC(F)(F)c1nc2ccccc2nc1SCCc1ccccn1 [CBK103731] | 96.9614
C=C(C)CN1CCN(C(=O)c2[nH]c3ccc(OCC)cc3c2C)CC1 [CBK282666] | 107.9
COc1ccc(C(NC(=O)C2CCN(S(C)(=O)=O)CC2)c2ccccc2C)cn1 (stereo not shown) [CBK059738] | 91.9192
NNC(=O)/C(=C\c1cccc([N+](=O)[O-])c1)NC(=O)c1ccc(Br)o1 [CBK262573] | 109.679
C[n+]1cn(/N=C/c2ccco2)cn1 [CBK028562I] | 127.765
O=C(c1cccc(F)c1)N1CCCC(c2cc3cccnc3[nH]2)C1 (stereo not shown) [CBK284939] | 74.3075
CC(C)c1nc(NCCc2nnc3n2CCCC3)nc(N(C)C)n1 [CBK306426] | 73.044
CCN(CC)CCCNc1c([N+](=O)[O-])c(=O)n(C)c2ccccc12 [CBK264893] | 86.6252
Clc1cccc(C2N(Cc3ccccc3)CCN2Cc2ccccc2)c1 [CBK261222] | 93.3215
COc1cc2c(cc1OC)CN(Cc1ccc(OCc3ccccc3)c(OC)c1)CC2 [CBK033974] | 104.77
O=C(CN(C(=O)CNC(=O)c1cccs1)c1cccc(C(F)(F)F)c1)NC1CCCCC1 [CBK084697] | 107.364
CCOc1cc(/C=C(/C#N)c2nc3ccccc3[nH]2)ccc1OCc1ccc(C(=O)O)o1 [CBK267923] | 117.612
CCOc1ccc(N(Cc2ccc(C(=O)O)cc2)S(C)(=O)=O)cc1 [CBK287231] | 80.6427

Structure (SMILES) | % of control remaining
CCNC(=O)N[C@@H]1C=C[C@@H](c2c(C)nn(CCC#N)c2C)C1 [CBK289171] | 84.622
O=C(NCCc1ccc(Cl)cc1)C1(Cc2cccc(-c3cccnc3)c2)CCOCC1 [CBK285606] | 81.2025
Cc1occc1C(=O)Nc1nc(CC(=O)N(C)Cc2ccsc2)cs1 [CBK305631] | 78.3476
COC(=O)CNC(=O)C1CC(=O)N(c2ccccc2Br)C1 (stereo not shown) [CBK296672] | 81.242
O=C(c1ccc(F)cc1)N1CCC(Oc2nccnc2OCc2ccc(Cl)c(Cl)c2)CC1 [CBK160721] | 92.9638
CCn1cc(S(=O)(=O)Nc2ccc3c(ccn3C)c2)c(C)n1 [CBK282818] | 56.3835
Cc1cc(NS(=O)(=O)c2c(C)nn(C)c2Cl)n(C)n1 [CBK067245] | 74.5155
Cn1ccc(CN2CCOC(c3nc(C(C)(C)C)n[nH]3)C2)cc1=O (stereo not shown) [CBK304495] | 58.2166
Cn1c(=O)c2c(nc(CN3CCN(C(=O)c4ccco4)CC3)n2Cc2ccccc2)n(C)c1=O [CBK269437] | 67.0388
CC(C)S(=O)(=O)N1C[C@@H](c2ccccc2)[C@H]2[C@H]1CCCCCN2C [CBK283083] | 92.821
O=C(C1CN(S(=O)(=O)c2ccccc2)CCN1S(=O)(=O)c1ccccc1)N1CCCCC1 (stereo not shown) [CBK262686] | 103.954
CC(=O)c1sc(NC(=O)Cc2ccc(C)cc2)nc1C [CBK287760] | 72.174
O=C(Cc1ccc(F)cc1)N1CCCC(c2nccnc2-c2cccc(C(F)(F)F)c2)C1 (stereo not shown) [CBK286210] | 126.711
CCc1nc2ccc(C(=O)N(C)CCN(C)C)cn2c1N(C)C(=O)C1CCCCC1 [CBK145771] | 98.7516
O=C(NCc1c(Cl)cccc1Cl)N1CCN(c2ccccc2)CC1 [CBK155194] | 99.8036
C(=C\c1ccccc1)/CN1CCN(C2CCN(CCc3ccccc3)CC2)CC1 [CBK261923] | 72.1917
O=c1[nH]c2ncc(-c3cccc(-c4ccccc4)c3)nc2n1Cc1ccccc1 [CBK064252] | 109.956
N#Cc1cccc(CN2CCCC3(CCN(C(=O)Cc4c[nH]c5ccccc45)C3)C2)c1 (stereo not shown) [CBK132032] | 77.9795
C=CCNC1OC(CO)C(O)C(O)C1O (stereo not shown) [CBK261357] | 117.292
NCc1cnc2c(c1)CCC2 [CBK018584G] | 41.3956
Cc1ccc(-c2ccc(/C=C/c3cc(C(F)(F)F)nc(=O)[nH]3)o2)cc1Cl [CBK018169] | 85.2766
CCOc1cc(/C=C2/NC(=O)N(c3ccccc3)C2=O)cc(Cl)c1OCc1cccc(C(=O)O)c1 [CBK265160] | 113.713
CC1(C)[C@H](Cc2cc(COc3ccccc3)on2)C[C@@H]1NC1CCOCC1 [CBK289694] | 89.3304
NS(=O)(=O)c1ccc(CCNC2=CC(=O)CC(c3ccco3)C2)cc1 (stereo not shown) [CBK265852] | 120.008
O=C1NCCC[C@@H]1NC(=O)[C@H]1CN(C(=O)c2ccccc2)CCN1C(=O)c1cccnc1 [CBK289634] | 119.644
